Measurements as given in PubChem BioAssay AID686979 (National Center for Advancing Translational Sciences (NCATS), 2013).
Values joined by “and” are separate entries in the source; they are usually repeats but may differ in a detail not shown here. Identical values can stand only once. About 50,000 (12%) of roughly 420,000 compounds were called active. Inconclusive results, whose numbers are uncertain, are shown with a selection of clear calls. Calls come from the whole dose curve; as a rule, active = well fitted inhibition curve with a large enough effect; inconclusive = small, poorly fitted or top-dose-only effect; inactive = flat fitted curve, though single readings scatter. A potency beside an inconclusive call is a rough fit, not a confirmed value.

Test: qHTS for Inhibitors of human tyrosyl-DNA phosphodiesterase 1 (TDP1): qHTS in cells in presence of CPT; note: nearly all actives have a fitted effect of over 55% in size
Conditions: chicken DT40 Tdp1-/-;hTDP1 cells + 20 nM CPT, ATP luminescence, 48 h; activity change, negative = growth inhibition: at 46.2 µM (top of the series)
Method in brief: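 Cell growth measured by CellTiter-Glo luminescence after a minimum 48 h, 37 C compound exposure with 20 nM CPT in Tdp1-knockout DT40 cells stably expressing hTDP1, seeded 400/well; qHTS titration format.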
% is set by controls: 0 for no effect and ±100 for the full control effect; potency is the fitted concentration of half-maximal effect; tags give direction and shape of the fitted curve.

| SMILES | Potency | activity change, negative = growth inhibition |
| --- | --- | --- |
| Cc1nn(C(=O)c2ccccc2)c(C)c1S(=O)(=O)N1CCOCC1 | inconclusive: 16.4 µM [inhibitor, partial curve] | – |
| Cc1c(Cl)cccc1NC(=S)Nn1cnnc1 | inactive | – |
| COc1cccc(/C=C/C(=O)OCC(=O)Nc2cccc(S(=O)(=O)N3CCCCC3)c2)c1OC | inconclusive: 29.1 µM [inhibitor, single point] | – |
| CC(C)(C)OC(=O)NCCCCCc1nnc(SCc2ccc(F)cc2)o1 | inconclusive: 25.9 µM [inhibitor, partial curve, poor fit] | – |
| Nc1ncnc2c1ncn2COC(CO)CO | active: 0.316 µM | – |
| CN(C)S(=O)(=O)n1cc(/C=C(\NC(=O)c2ccccc2Cl)C(=O)NCCCN2CCOCC2)c2ccccc21 | inconclusive: 11.6 µM [inhibitor, partial curve] | – |
| CCOC(=O)c1cc(S(=O)(=O)NC2CCN(C(=O)OCC)CC2)cn1C | inconclusive: 20.6 µM [inhibitor, partial curve] | – |
| COc1ccc(OC)c(CN2CCC3(CCC(CNC(=O)c4ccco4)O3)CC2)c1 (centres undefined) | – | inactive: 22.4% [at 9.04 µM] |
| Cc1ccc(S(=O)(=O)N2CCCC(C(=O)NCC(C)C)C2)cc1 (centres undefined) | inconclusive: 1.16 µM [inhibitor, full curve, poor fit] | – |
| CCOC(=O)CSc1nc(=O)n2cc(C)ccc2n1 | inactive | – |
| CN(C)S(=O)(=O)c1ccc(NC(=O)c2cc(-c3cccs3)nc3ccccc23)cc1 | inconclusive: 10.3 µM [inhibitor, partial curve] | – |
| CCOc1ccccc1CNS(=O)(=O)c1ccc2c(c1)C(C)(C)C(=O)N2C | inactive and inconclusive: 29.1 µM [inhibitor, single point] | – |
| N#Cc1c(NC(=O)c2nc3ncccn3n2)sc2c1CCCCC2 | inactive | – |
| CCOC(=O)CN(C(=O)c1snc(C(N)=O)c1N)C(C(=O)NCCC(C)C)c1ccc(C)cc1 (centres undefined) | inactive | – |
| Nn1c(SCc2cccc3ccccc23)nnc1-c1ccco1 | inconclusive: 20.6 µM [inhibitor, single point] | – |
| Cn1c(Oc2ccc(Cl)cc2)c(C=O)c2ccccc21 | inconclusive: 29.1 µM [inhibitor, single point] | – |
| CCCCc1ccc(NC(=O)CSCc2cc(=O)[nH][nH]2)cc1 | inactive | – |
| Cc1cc(C)c(NC(=O)C[N+](C)(C)CC(O)COc2cccc3ccccc23)c(C)c1 (centres undefined) | active: 18.4 µM | – |
| Cc1cccn2cc(-c3cccc(S(=O)(=O)N4CC(C)OC(C)C4)c3)nc12 (centres undefined) | inconclusive: 3.26 µM [inhibitor, single point] | – |
| Cc1ccccc1Cn1c(C)c(C(=O)NCc2ccc(Cl)c(Cl)c2)sc1=O | inconclusive: 29.1 µM [inhibitor, single point] | – |
| CCOC(=O)c1cc2c(C)n(-c3ccc(N(C)C)cc3)c(C)c2cc(C(=O)OCC)c1=O | inconclusive: 1.03 µM [inhibitor, partial curve, poor fit] | – |
| CCn1c(=O)c2sccc2n2c(CCC(=O)Nc3ccc(C(C)C)cc3)nnc12 | inconclusive: 29.1 µM [inhibitor, single point] | – |

| SMILES | Potency | activity change, negative = growth inhibition |
| --- | --- | --- |
| O=C(Nc1ccccc1SCC1CSc2nc3ccccc3c(=O)n21)c1ccccc1Cl (centres undefined) | inconclusive: 29.1 µM [inhibitor, single point] | – |
| CCCCN1C(=O)C(=O)N(CC(=O)Nc2ccc(OC(F)(F)F)cc2)C1=O | inconclusive: 29.1 µM [inhibitor, single point] | – |
| Cc1cccc(NC(=S)N(CCCN2CCCC2)Cc2cccn2Cc2ccc(Cl)cc2)c1 | inconclusive: 18.4 µM [inhibitor, single point] | – |
| Cc1cccc(CNC(=O)c2sc(=O)n(Cc3ccccc3C)c2C)c1 | inconclusive: 29.1 µM [inhibitor, single point] | – |
| CCOC(=O)c1cnc2c(OC)cccc2c1N1CC(C)CC(C)C1 (centres undefined) | active: 11.6 µM | – |
| CN(Cc1ccc(F)cc1)C(=O)c1cc(S(=O)(=O)N2CCCCC2)ccc1N1CCOCC1 | inconclusive: 29.1 µM [inhibitor, single point] | – |
| COc1ccc(-c2cc(=O)c3ccccc3s2)cc1 | inconclusive: 29.1 µM [inhibitor, single point] | – |
| CCc1nnc(SC(CC)C(=O)Nc2cc(C)ccc2C)c2cc3occc3n12 (centres undefined) | active: 18.4 µM | – |
| CCOc1ccccc1N1CCN(C(=O)COc2ccc3c(C)cc(=O)oc3c2)CC1 | inconclusive: 29.1 µM [inhibitor, single point] | – |
| COc1cc(C(=O)N2CCN(C3CCC(C)CC3)CC2)cc(OC)c1OC (centres undefined) | inactive | – |
| Cc1c(Cl)c([N+](=O)[O-])nn1CC(=O)NC(C)C1CC2CCC1C2 (centres undefined) | inactive | – |
| CCc1ccccc1NC(=O)CC1SCCNC1=O (centres undefined) | inactive | – |
| CCN(CC)S(=O)(=O)c1ccc(Cl)c(NC(=O)COc2ccc(OC)cc2)c1 | inactive | – |
| CS(=O)(=O)N(CC(=O)NCCSCc1cccc(Cl)c1)c1ccc2c(c1)OCO2 | inactive | – |
| Cc1cc(C)c(S(=O)(=O)N(C2=NCCS2)S(=O)(=O)c2c(C)cc(C)cc2C)c(C)c1 | inconclusive: 29.1 µM [inhibitor, partial curve, poor fit] | – |
| C/C=C(\C)CN1CCN(c2cccc(C)c2C)CC1 | inconclusive: 25.9 µM [inhibitor, single point] | – |
| Cc1ccc(-c2cc(C(=O)n3cnc4ccccc43)c3ccccc3n2)cc1C | inconclusive: 23.1 µM [inhibitor, partial curve, poor fit] | – |
| Cc1cc(Nc2ccc(Cl)cc2)n(-c2cccc(Cl)c2)n1 | inconclusive: 29.1 µM [inhibitor, single point] | – |
| O=C(Cn1cnc2c(nnn2Cc2ccc(Cl)cc2)c1=O)c1ccccc1 | – | inconclusive: 1.41% [inhibitor] |
| CC1CCN(S(=O)(=O)c2nnc(NC(=O)COc3ccccc3)s2)CC1 | inactive | – |
| C[C@H](NC(=O)Cc1ccccc1)C(=O)N1CCC2(CC1)NCCc1[nH]cnc12 | inactive | – |
| COc1ccc(C(=O)Oc2ccc(C(=S)N3CCOCC3)cc2)cc1 | inconclusive: 29.1 µM [inhibitor, single point] | – |
